{"source": "PubChem BioAssay AID720709", "about": "(National Center for Advancing Translational Sciences (NCATS), 2013)", "note": "The campaign covered roughly 360,000 compounds. About 520 (0.14%) were called active. The inconclusive results got no clear call from the source; some entries with a clear call stand among them for comparison. Calls come from the whole dose curve; as a rule, active = well fitted inhibition curve with a large enough effect; inconclusive = small, poorly fitted or top-dose-only effect; inactive = no such curve, though single readings can be large or run the other way. No potency is given beside an inconclusive call; the fits are too rough. Potency is the fitted concentration of half-maximal effect; tags give direction and shape of the fitted curve.", "data": [{"target": "Rap guanine nucleotide exchange factor 3 (Homo sapiens) (UniProt O95398)", "sequence (O95398 whole entry, looked up)": "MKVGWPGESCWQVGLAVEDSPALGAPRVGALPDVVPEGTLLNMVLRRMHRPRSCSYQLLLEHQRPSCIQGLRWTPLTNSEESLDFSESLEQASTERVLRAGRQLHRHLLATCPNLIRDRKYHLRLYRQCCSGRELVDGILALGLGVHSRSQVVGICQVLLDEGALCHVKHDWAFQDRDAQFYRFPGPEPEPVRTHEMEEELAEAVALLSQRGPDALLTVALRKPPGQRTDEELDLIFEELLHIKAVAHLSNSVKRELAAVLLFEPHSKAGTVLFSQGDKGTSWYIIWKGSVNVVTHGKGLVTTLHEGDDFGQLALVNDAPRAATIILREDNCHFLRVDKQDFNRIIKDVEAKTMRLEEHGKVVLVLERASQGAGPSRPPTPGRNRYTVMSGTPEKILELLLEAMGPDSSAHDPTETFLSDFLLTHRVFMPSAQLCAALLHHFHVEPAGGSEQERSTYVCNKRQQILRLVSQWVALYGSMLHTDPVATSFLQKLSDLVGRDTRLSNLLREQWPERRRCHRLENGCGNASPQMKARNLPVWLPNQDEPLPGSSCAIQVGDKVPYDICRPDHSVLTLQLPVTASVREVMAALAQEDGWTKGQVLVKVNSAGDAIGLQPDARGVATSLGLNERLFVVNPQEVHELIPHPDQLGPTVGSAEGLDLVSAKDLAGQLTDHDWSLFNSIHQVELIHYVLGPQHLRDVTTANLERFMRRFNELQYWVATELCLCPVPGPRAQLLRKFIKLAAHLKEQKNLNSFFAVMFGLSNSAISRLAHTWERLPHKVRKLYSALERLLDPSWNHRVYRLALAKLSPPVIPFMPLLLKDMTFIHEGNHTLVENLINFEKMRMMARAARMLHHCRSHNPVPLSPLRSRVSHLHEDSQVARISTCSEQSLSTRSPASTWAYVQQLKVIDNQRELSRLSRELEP", "test": "qHTS for Antagonist of cAMP-regulated guanine nucleotide exchange factor 3 (EPAC1): primary screen; note: nearly all actives have a fitted effect of over 50% in size", "details": "EPAC1 GEF assay, Rap1b-BODIPY-GDP exchange fluorescence; series mostly up to 115 µM", "values": [{"smiles": "Cc1cc(C)c(N(C(=O)CN2C(=O)c3ccccc3S2(=O)=O)C(C(=O)NCC2CCCO2)c2ccc(F)cc2)c(C)c1", "note": "(stereo not given)", "Potency": "inconclusive [inhibitor, full curve, poor fit]"}, {"smiles": "Cc1ccc(C(O)c2ncc(-c3ccc(Cl)cc3)[nH]2)cc1F", "note": "(stereo not given)", "Potency": "inconclusive [inhibitor, partial curve]"}, {"smiles": "NC(Cc1ccc(C(F)(F)F)cc1)c1csc(Nc2ccc(C(=O)c3ccccc3)cc2)n1", "note": "(stereo not given)", "Potency": "inconclusive [inhibitor, partial curve]"}, {"smiles": "NC(=NCc1ccc2c(c1)OCO2)NC(=O)c1ccccc1", "Potency": "inconclusive [inhibitor, single point]"}, {"smiles": "COc1cc(COCC(O)CN2C(C)CCCC2C)cc(OC)c1OC", "note": "(stereo not given)", "Potency": "inactive"}, {"smiles": "COc1ccc(C)cc1NC(=O)CCNC(=O)Cn1ccc2ccccc2c1=O", "Potency": "inconclusive [inhibitor, full curve, poor fit]"}, {"smiles": "CCN(CC)CCN(C)C(=O)CCc1nnc(-c2ccc(C)s2)o1", "Potency": "inconclusive [inhibitor, partial curve]"}, {"smiles": "CC1(C)CC(=O)C2=C(C1)NC(SCC(=O)Nc1ccccc1)=C(C#N)C2c1ccco1", "note": "(stereo not given)", "Potency": "inactive"}, {"smiles": "Cc1ccsc1/C=N/NC(=O)CNC(=O)c1ccc(S(=O)(=O)N(C)C)cc1", "Potency": "inconclusive [inhibitor, partial curve]"}, {"smiles": "COc1ccc(OC)c(NC(=O)CN(c2ccc(C)cc2)S(=O)(=O)c2c(C)noc2C)c1", "Potency": "inconclusive [inhibitor, partial curve, poor fit]"}, {"smiles": "Cc1ccccc1CNC(=O)c1ccc2nc([C@@H]3O[C@H](CO)[C@H](O)[C@H](O)[C@H]3O)[nH]c2c1", "Potency": "inconclusive [inhibitor, single point]"}, {"smiles": "C[C@H](CO)N1C[C@H](C)[C@@H](CN(C)C(=O)Nc2ccccc2)Oc2ccc(NC(=O)NC3CCCCC3)cc2C1=O", "Potency": "inconclusive [inhibitor, single point]"}, {"smiles": "COc1cc(C(c2sc3nc(C)nn3c2O)N2CCN(c3ccccc3)CC2)cc(OC)c1OC", "note": "(stereo not given)", "Potency": "inconclusive [inhibitor, single point]"}, {"smiles": "CC1=CC2=NC(=O)/C(=C\\c3cc(C)n(-c4cccc(Cl)c4)c3C)C(=N)N2O1", "Potency": "inactive"}, {"smiles": "O=C(CCS(=O)(=O)c1ccccc1)N(CCCN1CCOCC1)c1nc2ccc(F)cc2s1", "Potency": "inconclusive [inhibitor, single point]"}, {"smiles": "O=C(OCc1nnc(-c2ccccc2)o1)c1ccc(CO)cc1", "Potency": "inconclusive [inhibitor, partial curve, poor fit]"}, {"smiles": "O=C(NC1=NCCS1)c1cc(-c2cccs2)nc2ccccc12", "Potency": "inconclusive [inhibitor, full curve, poor fit]"}, {"smiles": "CCSc1nnc(NC(=O)CSc2sc3c(O)cc(=O)[nH]c3c2C#N)s1", "Potency": "inconclusive [inhibitor, partial curve]"}, {"smiles": "Cc1c(NC(=O)Nc2cc(F)c(F)cc2Cl)c(=O)n(-c2ccccc2)n1C", "Potency": "inconclusive [inhibitor, full curve, poor fit]"}, {"smiles": "Cc1ccc(N=C2NC(=O)/C(=C/C=C/c3ccco3)S2)cc1C", "Potency": "inconclusive [inhibitor, partial curve]"}, {"smiles": "O=C(N/N=C/c1cccc2ccccc12)c1cccnc1", "Potency": "inconclusive [inhibitor, partial curve]"}, {"smiles": "CCN(Cc1ccccc1)C(c1cc2cc(C)cc(C)c2[nH]c1=O)c1nnnn1CCOC", "note": "(stereo not given)", "Potency": "inconclusive [inhibitor, partial curve]"}, {"smiles": "O=C(NCCc1ccc(Cl)cc1Cl)c1cc([N+](=O)[O-])c[nH]c1=O", "Potency": "inconclusive [inhibitor, full curve, poor fit]"}, {"smiles": "CCOC(=O)c1c2c3c(cccc3n(C)c1=O)C(=O)c1ccccc1-2", "Potency": "inconclusive [inhibitor, partial curve]"}, {"smiles": "O=C(Nc1nc2c(s1)CN(Cc1ccccc1)CC2)c1cccc(S(=O)(=O)N2CCc3ccccc32)c1", "Potency": "inactive"}, {"smiles": "COc1cccc(/C=N/Nc2ccc(S(=O)(=O)Nc3ccccc3C(=O)O)cc2[N+](=O)[O-])c1O", "Potency": "active: 25.1 µM"}, {"smiles": "Cc1c(Cl)cccc1NS(=O)(=O)c1ccc2c(c1)C1C=CCC1C(c1ccc(C(=O)O)cc1)N2", "note": "(stereo not given)", "Potency": "active: 56.2 µM"}, {"smiles": "Nc1c(N2CCCC2)cc(Cl)c2nonc12", "Potency": "inconclusive [inhibitor, partial curve]"}, {"smiles": "CSCCNCc1c(C(=O)N2CCOCC2)nc2c(C)cccn12", "Potency": "inconclusive [inhibitor, full curve, poor fit]"}, {"smiles": "O=C(Nc1cccc([N+](=O)[O-])c1)c1ccc2c(c1)C(=O)N(c1ccccn1)C2=O", "Potency": "inconclusive [inhibitor, partial curve]"}, {"smiles": "COc1ccc(NC(=O)c2oc3ccc(S(=O)(=O)N4CCOCC4)cc3c2C)cc1", "Potency": "inconclusive [inhibitor, partial curve, poor fit]"}, {"smiles": "O=C1S/C(=C/c2ccc(N3CCOCC3)o2)C(=O)N1Cc1ccc(F)cc1", "Potency": "inactive"}, {"smiles": "Cc1ccccc1S(=O)(=O)NCC[C@@H]1CC[C@@H](NC(=O)C2CCCC2)[C@@H](CO)O1", "Potency": "inconclusive [inhibitor, single point]"}, {"smiles": "S=C(NCC1COc2ccccc2O1)Nc1ccccc1", "note": "(stereo not given)", "Potency": "inconclusive [inhibitor, partial curve, poor fit]"}, {"smiles": "Cc1onc(-c2ccccc2Cl)c1C(=O)Nc1ccccc1O", "Potency": "inconclusive [inhibitor, single point]"}, {"smiles": "Cc1ccc(NNC(=O)C(O)(c2cccc(C(F)(F)F)c2)c2cccc(C(F)(F)F)c2)cc1", "Potency": "inconclusive [inhibitor, partial curve]"}, {"smiles": "CN(C(=O)CN1CCN(c2cc(-c3cccc4oc5ccccc5c34)ncn2)CC1)c1ccccc1", "Potency": "inactive"}, {"smiles": "Cc1ccc(C(=S)N2CCN(Cc3ccccc3)CC2)s1", "Potency": "inconclusive [inhibitor, full curve, poor fit]"}, {"smiles": "CN(C)c1ccc(Cl)c(NC(N)=S)c1", "Potency": "inconclusive [inhibitor, single point]"}, {"smiles": "O=C1/C(=C/c2cccc(F)c2)Oc2cc(O)ccc21", "Potency": "inconclusive [inhibitor, single point]"}, {"smiles": "CCOC(=O)c1c(C)[nH]c(C(=O)N/N=C/c2cc([N+](=O)[O-])ccc2O)c1C", "Potency": "inactive"}, {"smiles": "CCOC(=O)C1=CN(C)CCC1=O", "Potency": "inactive"}, {"smiles": "Nc1cccc2c(O)cc(S(=O)(=O)O)cc12", "Potency": "inactive"}, {"smiles": "CCCCn1c(NS(=O)(=O)c2ccc(C)cc2)c(S(=O)(=O)c2ccccc2)c2nc3ccccc3nc21", "Potency": "inconclusive [inhibitor, single point]"}, {"smiles": "CCOC(=O)c1c(CC(C)C)csc1NC(=O)c1ccccc1C(=O)O", "Potency": "inactive"}, {"smiles": "COc1nc(-c2ccccc2)ncc1S(=O)(=O)c1ccccc1", "Potency": "inconclusive [inhibitor, full curve, poor fit]"}, {"smiles": "CCOC(=O)N1CCC(NC(=O)c2ccc3c(c2)N=C(C)c2c(C)ccc(C)c2S3)CC1", "Potency": "inconclusive [inhibitor, partial curve]"}, {"smiles": "N#Cc1ccc(N2C(=O)[C@@H]3C(C(=O)c4cnccn4)=NN[C@@H]3C2=O)cc1", "Potency": "inactive"}, {"smiles": "COc1ccc(/C=N/Nc2nncn2N)cc1Br", "Potency": "inconclusive [inhibitor, partial curve]"}, {"smiles": "S=c1[nH]nc(CSCc2ccccc2Cl)n1C1CCCCC1", "Potency": "inconclusive [inhibitor, partial curve, poor fit]"}, {"smiles": "CCN(CC)S(=O)(=O)c1ccc(N2CCOCC2)c(NC(=O)c2cccc(C#N)c2)c1", "Potency": "inconclusive [inhibitor, single point]"}, {"smiles": "CCCCCC(=O)N(O)C1CC(=O)N(c2ccccc2)C1=O", "note": "(stereo not given)", "Potency": "inactive"}, {"smiles": "CCCCNC(=S)N/N=C/C1=CCC2CC1C2(C)C", "note": "(stereo not given)", "Potency": "inactive"}, {"smiles": "CN(C)C1CN(Cc2cn(Cc3ccccc3)nn2)S(=O)(=O)C1", "note": "(stereo not given)", "Potency": "inactive"}, {"smiles": "CCCN(CCC)Cc1c(C(=O)OCC)nnn1-c1nonc1N", "Potency": "inconclusive [inhibitor, partial curve]"}, {"smiles": "CC1(C(=O)Nc2ccc(Cl)c(Cl)c2)CCN1C(=O)CC1CCCC1", "note": "(stereo not given)", "Potency": "inactive"}, {"smiles": "O=C(N/N=C/c1ccc(Cl)cc1)c1nc2ccc([N+](=O)[O-])cc2c(=O)[nH]1", "Potency": "inconclusive [inhibitor, full curve, poor fit]"}, {"smiles": "O=C(/C=C/c1ccc(-c2ccccc2[N+](=O)[O-])o1)c1ccco1", "Potency": "active: 50.1 µM"}, {"smiles": "COc1ccc(OC)c(NC(=O)c2cnc(Nc3ccccc3OC)c3ccccc23)c1", "Potency": "inconclusive [inhibitor, partial curve, poor fit]"}, {"smiles": "O=C(c1ccc(OCCN2CCCCC2)cc1)c1c(-c2ccc(O)cc2)sc2cc(O)ccc12", "Potency": "inactive"}, {"smiles": "COc1ccccc1CCn1cnc(-c2ccc(OC)c(OC)c2)c1C(C)C", "Potency": "inconclusive [inhibitor, partial curve]"}, {"smiles": "Cc1ccc(C)c(S(=O)(=O)N=Nc2c(O)[nH]c3ccccc23)c1", "Potency": "inconclusive [inhibitor, single point]"}, {"smiles": "Cc1sc2ncnc(NCC3(N4CCOCC4)CCCCC3)c2c1C", "Potency": "inactive"}, {"smiles": "COCCNc1cc(-c2ccccc2)nc2cc(-c3cccc(F)c3)nn12", "Potency": "inconclusive [inhibitor, single point]"}, {"smiles": "CCOC(=O)c1sc2nc(-c3ccco3)c3c(c2c1N)CC(C)(C)OC3", "Potency": "inconclusive [inhibitor, partial curve]"}]}]}
